Results published in PubChem BioAssay (NCATS).
The other results are listed elsewhere or left out. Shown are side measurements of this screen, not its main read-out; they come without a call. Compounds called inactive in the main read-out are mostly missing here. Words in brackets tell the shape of the fitted curve; partial curves, single points and poor fits give uncertain potencies.

Tests used:
[1] = qHTS Assay for Lipid Storage Modulators (AID 1519); settings: Drosophila S3 cells, BODIPY lipid droplet/cell ratio, laser cytometry, cells loaded with oleic acid
How it was run: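 Cells seeded at 5,000 per well were treated with compounds over a concentration series and loaded with oleic acid (400 uM, as added). Lipid droplet fluorescence (488 nm excitation, 500-530 nm channel) was read by laser-scanning cytometry and normalized to 20 uM Triacsin C.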

[2] = A High-Content qHTS Against Drug Library for the Identification of Small Molecules that Inhibit DYT1 Early Onset Primary Dystonia-Associated Cell Pathology (AID 1645839); settings: HEK293 Flp-In EGFP-delE TorsinA, punctate imaging, 48 h; measured here: cell count cytotoxicity
How it was run: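 High-content imaging quantified EGFP-TorsinA mislocalization in HEK293-derived cells inducibly expressing DYT1 mutant torsinA, after 48 h exposure to compound given together with tetracycline induction. Cell count served as a toxicity channel alongside %pathology.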

[3] = S16 Schwann cell PMP22 intronic element beta-lactamase assay (AID 624044); settings: S16 rat Schwann cells, PMP22 element beta-lactamase FRET, 24 h; note: nearly all actives have a fitted effect of over 15% in size
How it was run: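 Beta-lactamase reporter under a PMP22 intronic regulatory element in stable S16 rat Schwann cells; 24 h compound exposure. 460 nm blue signal normalized between DMSO (0%) and potassium clavulanate, with 535 nm FRET tracking viability; curves classed by r2 and response.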

[4] = qHTS Assay for Inhibitors of PDE-IV (AID 607); settings: HEK293 ACTOne CNG channel cells, membrane potential fluorescence; measured here: parental cell counter-screen;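 note: parental cells stimulated with forskolin 10 µM plus RO 20-1724 100 µM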
How it was run: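 ACTOne HEK293 cells carry a modified cAMP-gated CNG channel and express endogenous PDE4; plated 1000 cells/well, compounds up to 22.9 uM final. Membrane-potential dye fluorescence (ex 535/em 590) was read; parental cells received 10 uM forskolin + 100 uM RO 20-1724.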

[5] = measured here: cell count channel max response
[6] = measured here: lipid (BODIPY) channel AC50
[7] = measured here: lipid channel max response
[8] = measured here: cell number channel AC50
[9] = measured here: 460 nm blue channel
Tags give direction and shape of the fitted curve.

| SMILES | max response [1, 5] | AC50 [1, 6] | max response [1, 7] | AC50 [2] | AC50 [1, 8] | AC50 [3, 9] | AC50 [4] | AC50 ([3]; measured here: 530 nm viability channel) |
| --- | --- | --- | --- | --- | --- | --- | --- | --- |
| CC(NCCC(c1ccccc1)c1ccccc1)c1ccccc1 (stereo not drawn) | -21% | 17.8 µM [falling, single point] | -34.7% | 8.91 µM [falling, partial curve, poor fit] |  |  |  |  |
| CCN(CC)C(=O)c1ccc(O)c(OC)c1 | 33% | 39.8 µM [rising, single point] | 32.4% |  | 39.8 µM [rising, single point] | 0.891 µM [falling, full curve, poor fit] |  |  |
| C#CCN(C)Cc1ccccc1 | 39.7% | 44.7 µM [rising, single point] | 43% | 35.5 µM [rising, single point] |  |  |  |  |
| Cc1cc(C)c(S(=O)(=O)Nc2ccccc2C(F)(F)F)c(C)c1 | 46.4% | 17.8 µM [rising, partial curve, poor fit] | 55.3% |  | 22.4 µM [rising, partial curve, poor fit] |  | 15.8 µM [rising, single point] |  |
| c1ccc(CNc2ncnc3ccc(-c4ccc5c(c4)OCO5)cc23)cc1 | 50.9% | 0.794 µM [rising, full curve, poor fit] | 62.5% |  | 3.55 µM [rising, partial curve, poor fit] |  | 12.6 µM [rising, partial curve] |  |
| COc1cc2cc3c4c(cc(OC)c(OC)c4c2cc1OC)CCN3C | 75.8% | 0.398 µM [rising, full curve, poor fit] | 95.7% |  | 0.501 µM [rising, full curve] |  | 15.8 µM [falling, partial curve, poor fit] |  |
| COc1ccccc1CNc1ncncc1-c1ccc2c(c1)OCO2 | 23.1% | 0.00562 µM [rising, full curve, poor fit] | 29.7% |  | 0.00501 µM [rising, full curve, poor fit] |  | 12.6 µM [rising, single point] |  |
| COc1ccccc1CNc1nc(-c2cccc(NS(C)(=O)=O)c2)nc2ccccc12 | 5.27% | 0.631 µM [rising, full curve, poor fit] | 11.1% |  | 0.794 µM [rising, full curve] |  | 15.8 µM [rising, single point] |  |
| Cn1cccc1C(=O)N1CCC2(CCCN(c3ccccn3)C2)CC1 | 13.9% | 0.562 µM [rising, full curve, poor fit] | 27.1% |  | 0.891 µM [rising, full curve] |  | 3.98 µM [rising, partial curve, poor fit] |  |
| COc1ccccc1-c1cc(=O)c2cc(O)ccc2o1 | 90.5% | 1.78 µM [rising, full curve] | 125% |  | 2.51 µM [rising, full curve] |  | 20 µM [rising, partial curve, poor fit] |  |
| C=C1C(=O)O[C@@H]2[C@@H]1CC/C(C)=C\CC[C@@]1(C)O[C@H]21 | -61.8% | 14.1 µM [falling, partial curve] | -95% |  | 14.1 µM [falling, partial curve, poor fit] | 25.1 µM [falling, single point] |  | 28.2 µM [rising, single point] |
| COc1ccc(CCCO[C@@H](Cn2ccnc2)c2ccc(OC)cc2)cc1 | 72.5% | 0.158 µM [rising, full curve] | 95.9% |  | 0.224 µM [rising, full curve] |  | 15.8 µM [rising, partial curve] |  |
| COc1ccccc1N1CCN(C[C@@H](O)COc2cccc3ccccc23)CC1 | 97.4% | 15.8 µM [rising, partial curve] | 127% |  | 14.1 µM [rising, partial curve] |  | 7.94 µM [rising, partial curve, poor fit] |  |
| COc1ccccc1-c1oc2ccccc2c(=O)c1OC | 129% | 12.6 µM [rising, partial curve] | 172% |  | 10 µM [rising, partial curve] |  | 15.8 µM [rising, partial curve, poor fit] |  |
| COC(=O)c1ccccc1NC(=O)c1ccc(F)cc1 | 126% | 2.51 µM [rising, full curve] | 167% |  | 2.51 µM [rising, full curve] |  | 15.8 µM [rising, single point] |  |
| CC(Cc1ccc(O)c(O)c1)C(C)Cc1ccc(O)c(O)c1 (stereo not drawn) | 45.8% | 31.6 µM [rising, partial curve, poor fit] | 57% |  | 28.2 µM [rising, partial curve, poor fit] | 17.8 µM [falling, partial curve] |  |  |
| NS(=O)(=O)c1cc(C(=O)O)c(NCc2ccco2)cc1Cl | 14.6% | 39.8 µM [rising, single point] | 30.6% | 6.31 µM [rising, single point] |  |  |  |  |
